From US20250277055A1 (SAMSUNG BIOLOGICS, published 2025)

Target: T1, VEGF (UniProt P15692-4 27-191)
T1 sequence (looked up): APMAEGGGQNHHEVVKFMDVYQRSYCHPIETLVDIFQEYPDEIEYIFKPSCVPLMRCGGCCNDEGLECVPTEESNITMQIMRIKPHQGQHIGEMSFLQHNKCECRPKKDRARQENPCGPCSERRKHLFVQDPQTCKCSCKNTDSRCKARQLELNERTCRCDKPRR
Assay: cell-based or functional assay

B1: R-SBL6 (bispecific antibody, human IgG1, human IgG4, kappa)
heavy 1: [letters of about 120 residues not shown]ASPREPQVCTLPPSREEMTKNQVSLSCAVKGFYPSDIAVEWESNGQPENNYKTTPPVLDSDGSFFLVSKLTVDKSRWQQGNVFSCSVMHEALHNHYTQKSLSLSPGKGGGGSGGGGSASTKGPSVFPLAPSSRSTSESTAALGCLVKDYFPEPVTVSWNSGALTSGVHTFPAVLQSSGLYSLSSVVTVPSSSLGTKTYTCNVDHKPSNTKVDKRVESKYGPPCPPCPAPELLGGPSVFLFPPKPKDTLMISRTPEVTCVVVDVSHEDPEVKFNWYVDGVEVHNAKTKPREEQYNSTYRVVSVLTVLHQDWLNGKEYKCKVSNKALPAPIEKTISKAKGQPREPQVYTLPPSREEMTKNQVSLSCAVKGFYPSDIAVEWESNGQPENNYKTTPPVLDSDGSFFLVSKLTVDKSRWQQGNVFSCSVMHEALHNHYTQKSLSLSPGK
light 1: [letters of about 100 residues not shown]RTPREPQVYTLPPCREEMTKNQVSLWCLVKGFYPSDIAVEWESNGQPENNYKTTPPVLDSDGSFFLYSKLTVDKSRWQQGNVFSCSVMHEALHNHYTQKSLSLSPGKGGGGSGGGGSRTVAAPSVFIFPPSDEQLKSGTASVVCLLNNFYPREAKVQWKVDNALQSGNSQESVTEQDSKDSTYSLSSTLTLSKADYEKHKVYACEVTHQGLSSPVTKSFNRGES
heavy 2: EVQLVESGGGLVQPGGSLRLSCAASGYTFTNYGMNWVRQAPGKGLEWVGWINTYTGEPTYAADFKRRFTFSLDTSKSTAYLQMNSLRAEDTAVYYCAKYPHYYGSSHWYFDVWGQGTLVTVSSASTKGPSVFPLAPSSKSTSGGTAALGCLVKDYFPEPVTVSWNSGALTSGVHTFPAVLQSSGLYSLSSVVTVPSSSLGTQTYICNVNHKPSNTKVDKKV[letters of human IgG1 Fc with changes not shown]
light 2: DIQMTQSPSSLSASVGDRVTITCSASQDISNYLNWYQQKPGKAPKVLIYFTSSLHSGVPSRFSGSGSGTDFTLTISSLQPEDFATYYCQQYSTVPWTFGQGTKVEIKRTVAAPSVFIFPPSDEQLKSGTASVVCLLNNFYPREAKVQWKVDNALQSGNSQESVTEQDSKDSTYSLSSTLTLSKADYEKHKVYACEVTHQGLSSPVTKSFNRGEC
B1 was tested, and the “IC50 (nM) in HUVEC proliferation assay” value was 6.77 nM.
